# According to the supplement of paper PMC8728848:
# This is one part of the list.
# B1: PX9961U-pdi-543-24-543 (Parabacteroides distasonis) (protein)
# chain: EEPVGEFLPGQVESEENIEGIVTGAYAVLDGYYASDAINSGCSNWQFGDVVSDDAYKGGGGTGDQNQIHLMEIFNANPTGIDFEARWAALYEGIKRCNQAIRLLNGSEVKNKEQRLAEMRFLRGHYYFNLKIIYNQIPWIDETLVDPNEYNKKSNIEFSSDQLWEKILEEFSAAYKVLPESQADYGRPTKMAARAYMAKVYLYQSKWKECLEACDEVIQSGKYELFPDFRNVFLPENDNCSEIIFAIQLSINDGSPNNENGSYGDRLLPPGGPYPVYGFLRPTQNLVNAYKTDVKGLPYNDGKDVSENDYVDVRLDHTLARPNIPFMDVQLYDWTPREASVYGPYSPKKRLVSLNSTYYSPIWPYVNALNFYVIRYADLLLWRAEAAIETGDLETGRKYINMIRERAKNTQHVKTMDQSQDAANYKVGVYDEPFKSKNEAVQALRMERRLEMAHEGIRFFDLVRWGVADEVINAYIAKEKVFRSHLQNAHFVKGKHEYFPIPQSMIDICGTEVMKQNPGY
# Legend:
# Assay in all cases: glycan array binding signal (z-score within array); higher = stronger binding
# Settings in all cases: glycan notation: IUPAC condensed, linker removed
# [1] = target: Fuc(a1-2)Gal(b1-4)GlcNAc(b1-3)Gal(b1-4)GlcNAc(b1-3)Gal(b1-4)GlcNAc
# Summary of the method: (§1)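 Glycan array data were curated from 3228 arrays in the Consortium for Functional Glycomics database and kept only where the protein sequence was available. Glycan names were converted to IUPAC-condensed notation, and columns mapping to the same glycan were averaged. The binding signal is a within-array Z-score, averaged across arrays of the same protein sequence at different concentrations or buffers and across linkers. Negative Z-scores can be read as non-binding.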
# [2] = target: Fuc(a1-2)Gal(b1-4)GlcNAc(b1-3)GalNAc
# Summary of the method: as §1
# [3] = target: Fuc(a1-2)Gal(b1-4)GlcNAc(b1-3)[Fuc(a1-2)Gal(b1-4)GlcNAc(b1-6)]GalNAc
# Summary of the method: as §1
# [4] = target: Fuc(a1-2)Gal(b1-4)GlcNAc(b1-3)[Fuc(a1-3)[Gal(b1-4)]GlcNAc(b1-6)]Gal(b1-4)Glc
# Summary of the method: as §1
# [5] = target: Fuc(a1-2)Gal(b1-4)GlcNAc(b1-6)GalNAc
# Summary of the method: as §1
# [6] = target: Fuc(a1-2)Gal(b1-4)GlcNAc6S
# Summary of the method: as §1
# [7] = target: Fuc(a1-2)Gal(b1-4)[Fuc(a1-3)]GlcNAc
# Summary of the method: as §1
# [8] = target: Fuc(a1-2)Gal(b1-4)[Fuc(a1-3)]GlcNAc(b1-2)Man(a1-3)[Fuc(a1-2)Gal(b1-4)[Fuc(a1-3)]GlcNAc(b1-2)Man(a1-6)]Man(b1-4)GlcNAc(b1-4)[Fuc(a1-6)]GlcNAc
# Summary of the method: as §1
# [9] = target: Fuc(a1-2)Gal(b1-4)[Fuc(a1-3)]GlcNAc(b1-2)[Fuc(a1-2)Gal(b1-4)[Fuc(a1-3)]GlcNAc(b1-4)]Man(a1-3)[Fuc(a1-2)Gal(b1-4)[Fuc(a1-3)]GlcNAc(b1-2)Man(a1-6)]Man(b1-4)GlcNAc(b1-4)GlcNAc
# Summary of the method: as §1
# [10] = target: Fuc(a1-2)Gal(b1-4)[Fuc(a1-3)]GlcNAc(b1-3)Gal(b1-4)[Fuc(a1-3)]GlcNAc
# Summary of the method: as §1
# [11] = target: Fuc(a1-2)Gal(b1-4)[Fuc(a1-3)]GlcNAc(b1-3)Gal(b1-4)[Fuc(a1-3)]GlcNAc(b1-3)Gal(b1-4)[Fuc(a1-3)]GlcNAc
# Summary of the method: as §1
# [12] = target: Fuc(a1-2)Gal(b1-4)[Fuc(a1-3)]GlcNAc(b1-3)GalNAc
# Summary of the method: as §1
# [13] = target: Fuc(a1-2)Gal(b1-4)[Fuc(a1-3)]GlcNAc(b1-3)[Neu5Ac(a2-6)Gal(b1-4)GlcNAc(b1-6)]Gal(b1-4)Glc
# Summary of the method: as §1
# [14] = target: Fuc(a1-2)Gal3S(b1-4)GlcNAc
# Summary of the method: as §1
# [15] = target: Fuc(a1-2)Gal6S(b1-3)GlcNAc
# Summary of the method: as §1
# [16] = target: Fuc(a1-2)Gal6S(b1-3)GlcNAc6S
# Summary of the method: as §1
# [17] = target: Fuc(a1-2)Gal6S(b1-4)Glc
# Summary of the method: as §1
# [18] = target: Fuc(a1-2)Gal6S(b1-4)Glc6S
# Summary of the method: as §1
# [19] = target: Fuc(a1-2)[Gal(a1-3)]Gal
# Summary of the method: as §1
# [20] = target: Fuc(a1-2)[Gal(a1-3)]Gal(b1-3)GalNAc
# Summary of the method: as §1
# [21] = target: Fuc(a1-2)[Gal(a1-3)]Gal(b1-3)GalNAc(b1-3)Gal(a1-4)Gal(b1-4)Glc
# Summary of the method: as §1
# [22] = target: Fuc(a1-2)[Gal(a1-3)]Gal(b1-3)GlcNAc
# Summary of the method: as §1
# [23] = target: Fuc(a1-2)[Gal(a1-3)]Gal(b1-3)GlcNAc(b1-2)Man(a1-3)[Fuc(a1-2)[Gal(a1-3)]Gal(b1-3)GlcNAc(b1-2)Man(a1-6)]Man(b1-4)GlcNAc(b1-4)GlcNAc
# Summary of the method: as §1
# [24] = target: Fuc(a1-2)[Gal(a1-3)]Gal(b1-3)GlcNAc(b1-2)Man(a1-3)[Fuc(a1-2)[Gal(a1-3)]Gal(b1-3)GlcNAc(b1-2)Man(a1-6)]Man(b1-4)GlcNAc(b1-4)[Fuc(a1-6)]GlcNAc
# Summary of the method: as §1
# [25] = target: Fuc(a1-2)[Gal(a1-3)]Gal(b1-3)GlcNAc(b1-3)GalNAc
# Summary of the method: as §1
# [26] = target: Fuc(a1-2)[Gal(a1-3)]Gal(b1-3)GlcNAc(b1-6)GalNAc
# Summary of the method: as §1
# [27] = target: Fuc(a1-2)[Gal(a1-3)]Gal(b1-4)Glc
# Summary of the method: as §1
# [28] = target: Fuc(a1-2)[Gal(a1-3)]Gal(b1-4)GlcNAc
# Summary of the method: as §1
# [29] = target: Fuc(a1-2)[Gal(a1-3)]Gal(b1-4)GlcNAc(b1-2)Man
# Summary of the method: as §1
# [30] = target: Fuc(a1-2)[Gal(a1-3)]Gal(b1-4)GlcNAc(b1-2)Man(a1-3)[Fuc(a1-2)[Gal(a1-3)]Gal(b1-4)GlcNAc(b1-2)Man(a1-6)]Man(b1-4)GlcNAc(b1-4)GlcNAc
# Summary of the method: as §1
binder,measurement,setting,value
B1,glycan array binding signal (z-score),[1],-0.371
same,glycan array binding signal (z-score),[2],-0.239
same,glycan array binding signal (z-score),[3],-0.049
same,glycan array binding signal (z-score),[4],-0.364
same,glycan array binding signal (z-score),[5],-0.147
same,glycan array binding signal (z-score),[6],-0.303
same,glycan array binding signal (z-score),[7],-0.363
same,glycan array binding signal (z-score),[8],-0.238
same,glycan array binding signal (z-score),[9],-0.121
same,glycan array binding signal (z-score),[10],-0.427
same,glycan array binding signal (z-score),[11],-0.3
same,glycan array binding signal (z-score),[12],3.47
same,glycan array binding signal (z-score),[13],-0.374
same,glycan array binding signal (z-score),[14],-0.479
same,glycan array binding signal (z-score),[15],-0.437
same,glycan array binding signal (z-score),[16],-0.345
same,glycan array binding signal (z-score),[17],-0.44
same,glycan array binding signal (z-score),[18],-0.226
same,glycan array binding signal (z-score),[19],-0.405
same,glycan array binding signal (z-score),[20],-0.362
same,glycan array binding signal (z-score),[21],-0.294
same,glycan array binding signal (z-score),[22],-0.384
same,glycan array binding signal (z-score),[23],-0.122
same,glycan array binding signal (z-score),[24],-0.236
same,glycan array binding signal (z-score),[25],-0.33
same,glycan array binding signal (z-score),[26],-0.326
same,glycan array binding signal (z-score),[27],-0.399
same,glycan array binding signal (z-score),[28],-0.433
same,glycan array binding signal (z-score),[29],-0.404
same,glycan array binding signal (z-score),[30],8.53
